# Some of the results follow. The list includes weakly bound sequences.
# Target: MaxL homodimer (UniProt P61244)
# Test: universal protein-binding microarray (PBM)
# Details: PBS-based mixture, 10 nM His-tagged protein dimer, 2% milk, 200 ng/uL BSA, 50 ng/uL salmon testes DNA, 0.02% TX-100; detection with Alexa 488 anti-His …; high values mean tight binding; most listed sequences are background and not binding sites; double strand, one strand shown
# UniProt P61244, sequence (P61244 whole entry): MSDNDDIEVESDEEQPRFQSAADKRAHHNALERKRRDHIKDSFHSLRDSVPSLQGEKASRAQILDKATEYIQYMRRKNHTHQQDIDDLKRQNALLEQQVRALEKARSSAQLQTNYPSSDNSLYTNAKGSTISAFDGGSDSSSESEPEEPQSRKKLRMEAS
row,Sequence,binding signal (normalized occupancy)
1,AGACTCGC,0.0708
2,TATCAAGA,0.0806
3,TTACAGAA,0.0782
4,ATCAGAAT,0.0779
5,AAAACACC,0.0711
6,ACTATACC,0.0791
7,AGCATACG,0.0797
8,ATACACAA,0.0801
9,CTAATAGC,0.0742
10,TCGCGCCA,0.0678
11,ACTGATAA,0.0792
12,ACTTTTAC,0.0751
13,CCGGTTCC,0.0684
14,CTCGTTGA,0.0795
15,GCTTAGGA,0.0763
16,CAGTCCGC,0.0669
17,TCAAGGAA,0.0712
18,GCGTGGCC,0.0977
19,ATTAATAA,0.0792
20,AACGCTCA,0.073
21,GTAACCGA,0.0706
22,CCTACCCA,0.0832
23,GTTCTTAA,0.07
24,CGGTCAAC,0.073
25,ATGACGTG,0.0885

row,Sequence,binding signal (normalized occupancy)
1,GCCCGGGC,0.0643
2,ATATGACC,0.0877
3,AGGGTTGG,0.078
4,AATCCATG,0.0812
5,ACTTATGG,0.0844
6,CACAGACG,0.0662
7,GGCTGTAC,0.071
8,AGGCACAC,0.0801
9,CTACACTC,0.0802
10,GTCTTGCA,0.0721
11,GAGCCGTA,0.0685
12,AGAGCATG,0.0989
13,GATAATCA,0.0856
14,GATTGCCA,0.0763
15,CGATGTTA,0.0792
16,GAGGCGAA,0.0686
17,ATATTGAT,0.0816
18,CCACCTTA,0.0756
19,AGATCTTA,0.0797
20,ACTTTCGC,0.076
21,AAGACTGT,0.0716
22,ATATGATG,0.0886
23,CGGCGAAA,0.068
24,CCCTAGAG,0.0723
25,AAAACACG,0.0851

row,Sequence,binding signal (normalized occupancy)
1,ATTGGATC,0.0791
2,CTCACGGC,0.0724
3,ACCACAGG,0.0732
4,ATCGCACA,0.0803
5,AGTGCTCA,0.0761
6,ACCCTTCC,0.0751
7,CGTAACCC,0.0788
8,CTGGTAGC,0.0698
9,AGCGCCGA,0.0647
10,GAGTTCAA,0.0741
11,CGCAGGCC,0.07
12,ATCGACGG,0.0723
13,CCGCCATC,0.0766
14,TAAGTTGA,0.0737
15,CAGAGCCA,0.0749
16,AACCTGGT,0.0793
17,AATTGGTC,0.0704
18,AGTACCCA,0.0812
19,ATCTCAAC,0.0783
20,AACACACC,0.0814
21,GATGGTAC,0.0754
22,CTAGTAAC,0.0773
23,CCTACGCA,0.0816
24,AAATACGG,0.0732
25,CTATCTCC,0.0798

row,Sequence,binding signal (normalized occupancy)
1,CTGGTTAA,0.0718
2,CACACCAG,0.0838
3,GCTTTGCC,0.0676
4,AACACAAC,0.0785
5,GCCGAGAC,0.07
6,GTCTTTCA,0.0748
7,GTAAGTAC,0.0781
8,AAGGATGA,0.0818
9,ATTGGACA,0.0763
10,AATAGGTG,0.0788
11,CCCGTACC,0.0725
12,GTTGGATA,0.0817
13,ATCCCCTG,0.0825
14,ATACTGTA,0.084
15,GAGACCCC,0.0771
16,CAGAATGC,0.0712
17,TAGCCGGA,0.0671
18,ACCGACTC,0.0705
19,TAGCACTA,0.0738
20,CACTGATA,0.0767
21,AAGTTCGT,0.0716
22,CAGACTCA,0.0702
23,GGCAAACA,0.078
24,CAAAGGTG,0.0766
25,ACATTCCA,0.0796

row,Sequence,binding signal (normalized occupancy)
1,AGTGCAAC,0.0732
2,ACAATAAT,0.0764
3,CCCGATTC,0.0781
4,CCCCCTTC,0.0788
5,GAATGAAA,0.0714
6,ACGACAAT,0.0733
7,GATAGAGC,0.0753
8,AGGCCTCA,0.0762
9,GATGATCA,0.077
10,CTCTTAGA,0.0693
11,AGCCACAC,0.082
12,AGTGCGCC,0.0735
13,CTCCACCC,0.0759
14,CACCCACC,0.0828
15,AGTCTAGC,0.0741
16,CCGTAGCG,0.066
17,CTGGGTAC,0.0731
18,GATTTTAC,0.08
19,TCAGTGAA,0.0721
20,AGGTTCGC,0.0729
21,CCGTGGGC,0.0706
22,ACACAGGT,0.0791
23,GCTCAGAA,0.0705
24,AGAGTTCG,0.0724
25,AGTAGAAG,0.0704

row,Sequence,binding signal (normalized occupancy)
1,ACCCCGTA,0.0818
2,ACTTGCAG,0.0753
3,ACAACTAA,0.0755
4,AAGAAAAG,0.0711
5,CGCTCCGA,0.0666
6,CTAGTCGA,0.0739
7,CCCTCGTA,0.0771
8,CATGCCCG,0.0842
9,AATTCGAT,0.0739
10,AACGGTAT,0.0763
11,AGGCAAGG,0.0749
12,ATGGGCAG,0.0789
13,ATAATCCG,0.0762
14,AGCCAGGC,0.0741
15,CTCCCATA,0.0803
16,CACTTATA,0.0766
17,AGAAAAAT,0.0708
18,AACCAGAG,0.0706
19,CTGAGGGA,0.0699
20,CCCTGCTC,0.0692
21,CCGGTCTA,0.0685
22,GTATACAC,0.0823
23,GGCGACAA,0.0667
24,CAGGACCC,0.0681
25,ACATTGGC,0.08

row,Sequence,binding signal (normalized occupancy)
1,CCGAAGAC,0.068
2,CAGGGATA,0.0756
3,TCTTAAGA,0.0691
4,CCGGAGAG,0.0728
5,AGGCCCAG,0.0691
6,TGAACAAA,0.075
7,AAGACATC,0.0756
8,CCTCCTCG,0.0722
9,AGGCAATG,0.0753
10,GCTACCAC,0.0792
11,CACCCAGC,0.0745
12,CCCTATCC,0.0805
13,ACGCCTTG,0.0774
14,CACTACCC,0.0784
15,GTATCCCA,0.0826
16,ACTGTCCG,0.071
17,GGAGTCCC,0.0706
18,CAATCACC,0.0797
19,ACAGTGAG,0.0743
20,CGAATGCG,0.0744
21,CTAAGTAC,0.0754
22,CAGAAGCC,0.0722
23,CTTTCCCA,0.0759
24,CTTATTTC,0.0739
25,ATCCTCTA,0.0745

row,Sequence,binding signal (normalized occupancy)
1,AACATTCG,0.0773
2,ACAAGGGC,0.0747
3,TAATATCA,0.0788
4,CATACTCA,0.0804
5,GTCCCGAA,0.0666
6,CGGGCCAA,0.0667
7,CTGTATAC,0.0794
8,CCTCCCGA,0.0695
9,CGTGTGGC,0.0953
10,CTGTGAAA,0.0728
11,GAGTAGAC,0.078
12,AAGCACGC,0.0949
13,AGGGGGCA,0.075
14,CGGATTAA,0.0759
15,CCTACTGC,0.0676
16,CAAACTAA,0.0779
17,ACAGGCAC,0.0752
18,ACTCGAGC,0.0729
19,ATGAGCCA,0.0853
20,CCAAATTA,0.0762
21,ATAGACCC,0.0762
22,ATATTGAG,0.0778
23,GCTTCCTA,0.0729
24,AGGTGTTG,0.0828
25,CACGTTTA,0.0986

row,Sequence,binding signal (normalized occupancy)
1,ATCGGTTA,0.0691
2,ACCTATCT,0.0788
3,AGTACACC,0.076
4,CCTTGGAG,0.0694
5,CAGCCAGA,0.0648
6,ACAACTCA,0.0775
7,AGTCCTCC,0.072
8,TAACCACA,0.0809
9,GAATTCGA,0.0745
10,TAACTCCA,0.0737
11,CTGAGCAG,0.0751
12,ATAACACG,0.0958
13,CTTCGAAA,0.0722
14,GGGCATAA,0.0796
15,AGGGACCG,0.0665
16,ATTAATGC,0.0728
17,CATTCGGA,0.0783
18,ATTCGCAG,0.0756
19,TTGAGCAA,0.0701
